From patent publication US20190241639A1 (ZHEJIANG DOER BIOLOGICS, published 2019)

B1: GLP-2 mutant fusion protein SEQ ID NO:29 (Fc fusion)
chain: HGDGSFSDEMNTILDNLAARDFINWLIQTKPSSGAPPPSGGGGSGPA[human IgG4 Fc with S228P N297A (EU numbers) omitted]
B2: GLP-2 mutant fusion protein SEQ ID NO:23 (Fc fusion)
chain: HGDGSFSDEMNTILDNLAARDFINWLIQTKITDPSSGAPPPS[human IgG4 Fc with S228P N297A (EU numbers) omitted]
B3: GLP-2 mutant fusion protein SEQ ID NO:26 (Fc fusion)
chain: HGDGSFSDEMNTILDNLAARDFINWLIPSSGAPPPSGGGGS[human IgG4 Fc with S228P N297A (EU numbers) omitted]

Biological target: GLP-2 receptor
Assay: cell-based or functional assay

Row | Binder | EC50 (nM), luciferase reporter gene assay in GLP-2R/Luc-CHO cells
1 | B1 | 27.3 nM
2 | B2 | 82.4 nM
3 | B3 | 81.7 nM
